Some of the results follow. Single values are uncertain, as repeats are few or missing.
Key:
Assay in all cases: cell count relative to DMSO control; melanoma cells; higher = more viable cells
Conditions in all cases: library dose: standard library concentration; 72 h
SkMel28 = test system: SkMel28
SkMel2 = test system: SkMel2
SkMel30 = test system: SkMel30
SkMel5 = test system: SkMel5
UACC257 = test system: UACC257
UACC62 = test system: UACC62
WM115 = test system: WM115
WM1716 = test system: WM1716
WM1745 = test system: WM1745
WM3526 = test system: WM3526
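Further: cells treated in 1,536-well plates, then fixed and DAPI-stained, with nuclei counted from automated high-throughput microscope images.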

Structure (SMILES)	cell count (SkMel28) [%]	cell count (SkMel2) [%]	cell count (SkMel30) [%]	cell count (SkMel5) [%]	cell count (UACC257) [%]	cell count (UACC62) [%]	cell count (WM115) [%]	cell count (WM1716) [%]	cell count (WM1745) [%]	cell count (WM3526) [%]
Cn1c(Nc2ccc(C(F)(F)F)cc2)nc2cc(Oc3ccnc(-c4ncc(C(F)(F)F)[nH]4)c3)ccc21 + Cc1cc(SCc2sc(-c3ccc(C(F)(F)F)c(F)c3)nc2C)ccc1OCC(=O)O [GW0742] (first compound 0.4 µM, partner dose 10 µM)	38.7	41.3	72.3	38.4	139	114	112	87.3	68.3	43.5
C[C@@H]1CCN(C(=O)CC#N)C[C@@H]1N(C)c1ncnc2[nH]ccc12 + C/C(O)=C(\C#N)C(=O)Nc1cc(Br)ccc1Br [LFM-A13] (first compound 5 µM, partner dose 10 µM)	114	109	114	101	122	83.8	124	97.9	91.3	115
COc1cc2ncnc(Nc3ccc(Oc4ccccc4)cc3)c2cc1OC + O=C(Oc1ccc([N+](=O)[O-])cc1)N1CCC(C(O)(c2ccc3c(c2)OCO3)c2ccc3c(c2)OCO3)CC1 [JZL184] (first compound 10 µM, partner dose 5 µM)	76.4	91.9	75.3	61.3	84.3	80.1	82.9	84.3	73	70.9
O=C(O)C(=O)Nc1sc2c(c1C(=O)O)CCNC2 + C/C(O)=C(\C#N)C(=O)Nc1cc(Br)ccc1Br [LFM-A13] (first compound 8.33333 µM, partner dose 10 µM)	93.9	111	104	77.3	85.5	127	92.4	112	70.8	88.2
CN1CCN(c2ccc3nc(-c4c(N)c5c(F)cccc5[nH]c4=O)[nH]c3c2)CC1 [Dovitinib] + C[As](C)SC[C@H](NC(=O)CC[C@H](N)C(=O)O)C(=O)NCC(=O)O [Darinaparsin] (first compound 0.5 µM, partner dose 2 µM)	62	58.8	82.8	65.9	90.8	61.1	50.9	65.5	52.9	60.3
COCC[n+]1c2c(n(Cc3cnccn3)c1C)C(=O)c1ccccc1C2=O + Cc1cc(SCc2sc(-c3ccc(C(F)(F)F)c(F)c3)nc2C)ccc1OCC(=O)O [GW0742] (first compound 0.002 µM, partner dose 10 µM)	43.1	36.2	80.4	42	28.8	95.1	80.7	84	118	57.7
COc1cc2ncnc(Nc3ccc(Oc4ccccc4)cc3)c2cc1OC + C/C(O)=C(\C#N)C(=O)Nc1cc(Br)ccc1Br [LFM-A13] (first compound 10 µM, partner dose 10 µM)	62.8	87.6	100	112	94	98.1	86.8	116	75.7	72.4
C#Cc1cccc(Nc2ncnc3cc(OCCOC)c(OCCOC)cc23)c1 [erlotinib] + C[As](C)SC[C@H](NC(=O)CC[C@H](N)C(=O)O)C(=O)NCC(=O)O [Darinaparsin] (first compound 4 µM, partner dose 2 µM)	54.1	78.2	53.3	48.2	81.7	54	61.5	63.6	68.8	54.6
C=CCn1c(=O)c2cnc(Nc3ccc(N4CCN(C)CC4)cc3)nc2n1-c1cccc(C(C)(C)O)n1 + Cc1cc(SCc2sc(-c3ccc(C(F)(F)F)c(F)c3)nc2C)ccc1OCC(=O)O [GW0742] (first compound 0.1 µM, partner dose 10 µM)	29.9	85	75.7	60.5	78.5	73.7	66	95	57.5	69.3
COCC[n+]1c2c(n(Cc3cnccn3)c1C)C(=O)c1ccccc1C2=O + C/C(O)=C(\C#N)C(=O)Nc1cc(Br)ccc1Br [LFM-A13] (first compound 0.002 µM, partner dose 10 µM)	54.1	58	67.6	75.4	19.4	88.1	72.7	75.1	89.7	60.2
C[C@@H]1CCN(C(=O)CC#N)C[C@@H]1N(C)c1ncnc2[nH]ccc12 + Cc1cc(SCc2sc(-c3ccc(C(F)(F)F)c(F)c3)nc2C)ccc1OCC(=O)O [GW0742] (first compound 5 µM, partner dose 10 µM)	90.5	98.1	100	93.4	111	139	102	117	94.3	105
